# Measured values from PubChem BioAssay (Tox21).
# The inconclusive results got no clear call from the source; some entries with a clear call stand among them for comparison. For some assays here: Potencies beside an inconclusive call are fits to weak or partial responses and may not hold up. Active and inactive are the calls of the source. Unless noted, calls follow the shape of the dose curve; as a rule, active = well fitted curve in the direction sought with a large enough effect in the repeat runs; inconclusive = weak or mixed curves; inactive = no such curve, though single readings can be large; an effect the other way counts as inactive or inconclusive.
# Assays:
# [1] = qHTS assay to identify aromatase inhibitors - cell viability counter screen (AID 743084); conditions: MCF-7 aro ERE viability, CellTiter-Fluor, 24 h; activity change, negative = cytotoxicity: at 70.3 µM (top of the series);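 also: cells stimulated with testosterone during compound exposure; nearly all actives have a fitted effect of over 55% in size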; also: potency is read from the fitted curve at half-maximal effect; as to activity change, negative = cytotoxicity: % is scaled to controls: 0 for no effect and ±100 for the full control effect
# [2] = qHTS assay to identify small molecule that activate the aryl hydrocarbon receptor (AhR) signaling pathway - cell viability counter screen (AID 743086); also: nearly all actives have a fitted effect of over 45% in size; also: potency is read from the fitted curve at half-maximal effect;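 as to viability change, negative = cytotoxic: HepG2 liver cells carrying the AhR DRE luciferase reporter; % is scaled to controls: 0 for no effect and ±100 for the full control effect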
# Outline: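 HepG2-AhR-luc (HG2L7.5c1) cells, 4000/well, treated 24 h at 37 C with compound; viability measured as CellTiter-Fluor fluorescence after 30 min in the same wells as the luciferase read.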
# [3] = target: Peroxisome proliferator-activated receptor gamma (Homo sapiens) (UniProt P37231); test: qHTS assay to identify small molecule agonists of the peroxisome proliferator-activated receptor gamma (PPARg) signaling pathway (AID 743094; active = well fitted activation curve with a large enough effect in the signal ratio in the repeat runs, not every such curve was filed as active; inconclusive = weak or mixed curves, or effect the other way; inactive = no such curve, though single readings can be large or run the other way; the % refers to the signal ratio; also: potency is read from the fitted curve at half-maximal effect); conditions: HEK293H PPARg-UAS-bla, beta-lactamase FRET ratio, 17 h; activation: at 57 µM (top of the series) unless noted
# Outline: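 Following 5 h plating at 37C, PPARg-bla HEK293H cells receive compound or DMSO for 17 h; fluorescence intensity is recorded after LiveBLAzer B/G loading for 1 h at room temperature.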
# [4] = target: Peroxisome proliferator-activated receptor gamma (Homo sapiens) (UniProt P37231); test: qHTS assay to identify small molecule antagonists of the peroxisome proliferator-activated receptor gamma (PPARg) signaling pathway (AID 743191; calls by dose curve; also: nearly all actives have a fitted effect of over 30% in size; also: potency is read from the fitted curve at half-maximal effect); conditions: HEK293H PPARg-UAS-bla, beta-lactamase ratio, antagonist, 17 h; ratio activity, negative = inhibition: at 62.6 µM (top of the series) unless noted
# Outline: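 GeneBLAzer PPARg UAS-bla HEK293H cells, 5 h post-plating, exposed to compounds 17 h at 37C. LiveBLAzer B/G FRET substrate added for 1 h at room temperature; beta-lactamase reporter read by fluorescence intensity.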
# [5] = qHTS assay to identify small molecule antagonists of the peroxisome proliferator-activated receptor gamma (PPARg) signaling pathway - cell viability counter screen (AID 743194); conditions: PPARg-bla HEK293H viability, CellTiter-Glo luminescence, 17 h, co-treated with 50 nM rosiglitazone; activity change, negative = cytotoxicity: at 62.6 µM (top of the series); also: potency is read from the fitted curve at half-maximal effect; nearly all actives have a fitted effect of over 55% in size
# Outline: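 Cytotoxicity counter screen in PPARg-bla HEK293H cells, same wells as reporter assay. Compounds plus 50 nM rosiglitazone (final) for 17 h at 37 C, then viability read by CellTiter-Glo luminescence.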
# [6] = qHTS assay for small molecule agonists of the antioxidant response element (ARE) signaling pathway (AID 743202; active = well fitted activation curve with a large enough effect in the signal ratio in the repeat runs, not every such curve was filed as active; inconclusive = weak or mixed curves, or effect the other way; inactive = no such curve, though single readings can be large or run the other way; the % refers to the signal ratio; also: potency is read from the fitted curve at half-maximal effect); conditions: HepG2 ARE-bla reporter, beta-lactamase FRET, 16 h; activation: at 73.3 µM (top of the series) unless noted
# Outline: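 ARE-bla HepG2 cells (beta-lactamase reporter under the antioxidant response element), plated 5 hours, then exposed to compounds 16 hours at 37 C. LiveBLAzer B/G FRET substrate added for 2 hours at room temperature; fluorescence intensity read.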
# [7] = qHTS assay for small molecule activators of the heat shock response signaling pathway - cell viability counter screen (AID 743209); conditions: HSE-bla HeLa viability, CellTiter-Glo luminescence, 5 h; activity change, negative = cytotoxicity: at 62.6 µM (top of the series); also: potency is read from the fitted curve at half-maximal effect; nearly all actives have a fitted effect of over 50% in size
# Outline: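 Counter screen for cytotoxicity in HeLa HSE-bla reporter cells. Treatment was 5 h at 37 C; viability was detected by luminescent ATP assay (CellTiter-Glo) in the same wells as the beta-lactamase read.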
# [8] = qHTS assay for small molecule activators of the heat shock response signaling pathway (AID 743210; active = well fitted activation curve with a large enough effect in the signal ratio in the repeat runs, with a control signal flat, not every such curve was filed as active; inconclusive = weak or mixed curves; the % refers to the signal ratio; also: potency is read from the fitted curve at half-maximal effect); conditions: HeLa HSE-bla reporter, beta-lactamase ratio, 5 h; activation: at 62.6 µM (top of the series)
# Outline: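 HSE-bla HeLa cells (beta-lactamase reporter under heat shock response elements), plated overnight, then exposed to compounds 5 h at 37 C; LiveBLAzer B/G FRET substrate added, 2.5 h at room temperature, fluorescence intensity read.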
# [9] = qHTS assay to identify small molecule agonists of the peroxisome proliferator-activated receptor delta (PPARd) signaling pathway - cell viability counter screen (AID 743211); conditions: PPARd-bla HEK293H viability, CellTiter-Glo luminescence, 17 h; activity change, negative = cytotoxicity: at 62.6 µM (top of the series); also: potency is read from the fitted curve at half-maximal effect; nearly all actives have a fitted effect of over 55% in size
# Outline: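 PPARd-bla HEK293H cells (UAS-beta-lactamase reporter) were treated with compounds for 17 h at 37 C. Viability was then read in the same wells by CellTiter-Glo luminescence after 30 min at room temperature.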
# [10] = target: Peroxisome proliferator-activated receptor delta (Homo sapiens) (UniProt Q03181); test: qHTS assay to identify small molecule agonists of the peroxisome proliferator-activated receptor delta (PPARd) signaling pathway (AID 743212; calls by dose curve; also: potency is read from the fitted curve at half-maximal effect); conditions: HEK293H PPARd-UAS-bla, beta-lactamase FRET ratio, 17 h; activation: at 62.6 µM (top of the series) unless noted
# Outline: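 GeneBLAzer UAS-bla HEK293H cells carrying a PPARδ construct were exposed to compounds at 37 °C. Beta-lactamase activity was read by FRET fluorescence after 2 h at room temperature with LiveBLAzer B/G substrate.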
# [11] = qHTS assay to identify small molecule antagonists of the peroxisome proliferator-activated receptor delta (PPARd) signaling pathway - cell viability counter screen (AID 743213); conditions: PPARd-bla HEK293H viability, CellTiter-Glo luminescence, 17 h; viability change, negative = cytotoxic: at 62 µM (top of the series) unless noted; also: nearly all actives have a fitted effect of over 50% in size; also: potency is read from the fitted curve at half-maximal effect
# Outline: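 HEK293H PPARd UAS-bla cells, 5 h pre-incubation, compound + L165041 300 nM final, 17 h 37 C; B/G FRET substrate 2 h RT; then CellTiter-Glo 30 min RT, luminescence.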
# [12] = target: Peroxisome proliferator-activated receptor delta (Homo sapiens) (UniProt Q03181); test: qHTS assay to identify small molecule antagonists of the peroxisome proliferator-activated receptor delta (PPARd) signaling pathway (AID 743215; active = well fitted inhibition curve with a large enough effect in the signal ratio in the repeat runs, not every such curve was filed as active; inconclusive = weak or mixed curves, or effect the other way; inactive = no such curve, though single readings can be large or run the other way; the % refers to the signal ratio;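 also: cells stimulated with agonist L165041 at 300 nM final during compound exposure; % is scaled to controls: 0 for no effect and ±100 for the full control effect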); conditions: HEK293H PPARd-UAS-bla, beta-lactamase FRET ratio, antagonist, 17 h; ratio activity, negative = inhibition: at 62 µM (top of the series) unless noted
# Outline: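 With L165041 present at 300 nM final, compounds were incubated 17 h at 37 C on PPARd UAS-bla HEK293H cells. A FRET-based beta-lactamase substrate was then applied for 2 h at room temperature and fluorescence intensity recorded.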
# [13] = target: Bile acid receptor (Homo sapiens) (UniProt Q96RI1); test: qHTS assay to identify small molecule antagonists of the farnesoid-X-receptor (FXR) signaling pathway (AID 743217; active = well fitted inhibition curve with a large enough effect in the signal ratio in the repeat runs, not every such curve was filed as active; inconclusive = weak or mixed curves, or effect the other way; inactive = no such curve, though single readings can be large or run the other way; the % refers to the signal ratio; also: potency is read from the fitted curve at half-maximal effect); conditions: HEK293T FXR-UAS-bla, beta-lactamase ratio, CDCA-stimulated, 16 h; activity change, negative = inhibition: at 62.6 µM (top of the series) unless noted
# Outline: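 In this cell-based antagonist screen, inhibition of CDCA-driven (50 uM final) UAS-beta-lactamase expression in HEK 293T cells was measured by FRET fluorescence following 16 h compound exposure at 37 °C.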
# [14] = qHTS assay to identify small molecule agonists of the farnesoid-X-receptor (FXR) signaling pathway - cell viability counter screen (AID 743218); conditions: FXR-bla HEK293T viability, CellTiter-Glo luminescence, 16 h; viability change, negative = cytotoxic: at 62.6 µM (top of the series) unless noted; also: potency is read from the fitted curve at half-maximal effect; nearly all actives have a fitted effect of over 45% in size
# Outline: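 After 16 h at 37 C with test compounds, FXR-bla HEK 293T cells were given LiveBLAzer B/G substrate for 2 h at RT and then CellTiter-Glo; luminescence was taken after 30 min.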
# [15] = target: Bile acid receptor (Homo sapiens) (UniProt Q96RI1); test: qHTS assay to identify small molecule agonists of the farnesoid-X-receptor (FXR) signaling pathway (AID 743220; active = well fitted activation curve with a large enough effect in the signal ratio in the repeat runs, not every such curve was filed as active; inconclusive = weak or mixed curves, or effect the other way; the % refers to the signal ratio; also: potency is read from the fitted curve at half-maximal effect); conditions: HEK293T FXR-UAS-bla, beta-lactamase FRET ratio, 16 h; activation: at 62.6 µM (top of the series) unless noted
# Outline: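 Beta-lactamase reporter under UAS control in GeneBLAzer FXR HEK 293T cells (5000/well) measured with LiveBLAzer FRET substrate after 2 h at room temperature. Compound exposure lasted 16 h at 37C.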
# [16] = qHTS assay to identify small molecule antagonists of the farnesoid-X-receptor (FXR) signaling pathway - cell viability counter screen (AID 743221; active = well fitted cell-killing curve with a large enough effect in the repeat runs, not every such curve was filed as active; inconclusive = weak or mixed curves, or effect the other way; inactive = no such curve, though single readings can be large or run the other way; also: potency is read from the fitted curve at half-maximal effect; nearly all actives have a fitted effect of over 50% in size); conditions: FXR-bla HEK293T viability, CellTiter-Glo luminescence, 16 h; activity change, negative = cytotoxicity: at 62.6 µM (top of the series)
# Outline: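 FXR-UAS-bla HEK 293T cells were treated with test compounds plus chenodeoxycholic acid (50 uM final) for 16 h at 37 C. Cell viability in the same wells was then read as CellTiter-Glo luminescence after 30 min at room temperature.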
# [17] = target: Vitamin D3 receptor (Homo sapiens) (UniProt P11473); test: qHTS assay to identify small molecule antagonists of the vitamin D receptor (VDR) signaling pathway (AID 743223; active = well fitted inhibition curve with a large enough effect in the signal ratio in the repeat runs, not every such curve was filed as active; inconclusive = weak or mixed curves, or effect the other way; inactive = no such curve, though single readings can be large or run the other way; the % refers to the signal ratio; also: % is scaled to controls: 0 for no effect and ±100 for the full control effect); conditions: VDR-UAS-bla HEK293T, beta-lactamase FRET ratio, 16 h; activity change, negative = inhibition: at 61 µM (top of the series) unless noted
# Outline: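 VDR-bla cells were plated, incubated 4 h at 37C, then given compound and 1alpha,25-dihydroxyvitamin D3 (3 nM final). After 16 h at 37C, LiveBLAzer B/G FRET substrate was added for 2 h at room temperature and fluorescence read.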
# [18] = qHTS assay for small molecule agonists of the antioxidant response element (ARE) signaling pathway - cell viability counter screen (AID 743203; calls by dose curve; also: potency is read from the fitted curve at half-maximal effect; nearly all actives have a fitted effect of over 55% in size); conditions: ARE-bla HepG2 viability, CellTiter-Glo luminescence, 16 h; viability change, negative = cytotoxic: at 73.3 µM (top of the series)
# Outline: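 Compounds in DMSO were pinned onto ARE-bla HepG2 cells plated 5 hrs earlier at 2,000 cells/well. Sixteen hours later at 37C/5% CO2, CellTiter-Glo was added and luminescence measured after 30 min at room temperature.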
# Tags tell the direction and shape of the fitted curve or compound fluorescence and quenching.
# UniProt P37231, sequence (P37231 whole entry, looked up): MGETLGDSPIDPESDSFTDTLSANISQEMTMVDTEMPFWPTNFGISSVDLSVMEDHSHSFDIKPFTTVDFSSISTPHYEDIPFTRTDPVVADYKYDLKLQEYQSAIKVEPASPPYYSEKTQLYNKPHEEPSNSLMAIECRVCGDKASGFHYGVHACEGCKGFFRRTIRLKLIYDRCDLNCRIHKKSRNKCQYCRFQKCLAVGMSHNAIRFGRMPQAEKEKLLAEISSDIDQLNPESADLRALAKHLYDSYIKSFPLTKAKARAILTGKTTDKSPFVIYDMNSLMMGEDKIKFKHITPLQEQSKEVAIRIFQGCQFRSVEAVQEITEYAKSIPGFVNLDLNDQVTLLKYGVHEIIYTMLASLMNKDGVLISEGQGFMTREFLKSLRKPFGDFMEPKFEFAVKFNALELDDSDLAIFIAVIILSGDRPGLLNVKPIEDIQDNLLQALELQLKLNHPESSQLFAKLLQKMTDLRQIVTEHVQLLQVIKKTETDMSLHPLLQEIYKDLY
# UniProt Q96RI1, sequence (Q96RI1 whole entry, looked up): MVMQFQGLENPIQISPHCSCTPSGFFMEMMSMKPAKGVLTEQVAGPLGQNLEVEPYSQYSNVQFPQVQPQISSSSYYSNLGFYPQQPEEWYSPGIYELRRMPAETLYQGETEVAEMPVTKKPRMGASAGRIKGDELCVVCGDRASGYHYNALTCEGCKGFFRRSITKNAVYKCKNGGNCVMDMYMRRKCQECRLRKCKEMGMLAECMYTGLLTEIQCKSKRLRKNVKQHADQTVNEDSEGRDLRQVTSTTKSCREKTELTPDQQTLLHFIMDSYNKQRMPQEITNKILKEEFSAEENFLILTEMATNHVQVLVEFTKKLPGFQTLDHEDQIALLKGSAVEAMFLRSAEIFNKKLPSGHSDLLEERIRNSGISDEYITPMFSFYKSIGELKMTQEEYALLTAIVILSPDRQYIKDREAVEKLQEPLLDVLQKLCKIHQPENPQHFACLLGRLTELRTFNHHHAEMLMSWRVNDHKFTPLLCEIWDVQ
# UniProt Q03181, sequence (Q03181 whole entry, looked up): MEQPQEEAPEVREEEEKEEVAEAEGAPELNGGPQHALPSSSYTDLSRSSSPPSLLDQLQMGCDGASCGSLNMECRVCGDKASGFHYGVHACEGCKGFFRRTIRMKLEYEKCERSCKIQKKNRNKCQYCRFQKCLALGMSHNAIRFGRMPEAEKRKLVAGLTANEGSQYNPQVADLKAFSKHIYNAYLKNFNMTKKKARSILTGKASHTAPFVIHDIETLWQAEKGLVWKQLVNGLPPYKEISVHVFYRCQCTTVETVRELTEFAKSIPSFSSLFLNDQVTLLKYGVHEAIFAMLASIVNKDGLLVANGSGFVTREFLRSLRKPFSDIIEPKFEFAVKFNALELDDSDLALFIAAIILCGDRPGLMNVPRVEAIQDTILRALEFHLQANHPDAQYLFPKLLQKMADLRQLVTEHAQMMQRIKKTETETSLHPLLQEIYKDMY
# UniProt P11473, sequence (P11473 whole entry, looked up): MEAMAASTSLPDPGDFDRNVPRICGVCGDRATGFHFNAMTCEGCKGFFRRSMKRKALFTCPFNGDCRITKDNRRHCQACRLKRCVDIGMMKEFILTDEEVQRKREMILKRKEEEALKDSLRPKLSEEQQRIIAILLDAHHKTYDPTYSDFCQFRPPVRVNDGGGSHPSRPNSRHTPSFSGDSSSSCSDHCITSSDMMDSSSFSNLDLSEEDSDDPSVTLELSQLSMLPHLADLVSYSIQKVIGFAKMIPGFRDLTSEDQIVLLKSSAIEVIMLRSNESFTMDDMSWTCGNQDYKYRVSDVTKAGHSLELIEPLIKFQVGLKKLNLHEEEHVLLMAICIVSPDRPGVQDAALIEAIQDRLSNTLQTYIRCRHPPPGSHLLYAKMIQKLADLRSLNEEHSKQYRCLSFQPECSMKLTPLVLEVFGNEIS
smiles,measurement,setting,value
CCCCCCCCCCCCCCCCCCOS(=O)(=O)O,Potency,[1],"inconclusive: 68.6 µM [cytotoxic, single point]"
same,Potency,[2],inactive
same,Potency,[3],"inconclusive: 54.9 µM [falling, single point]"
same,Potency,[4],inconclusive: 54.9 µM [inhibitor]
same,Potency,[5],"inconclusive: 61.6 µM [cytotoxic, single point]"
same,Potency,[6],"inconclusive: 61.1 µM [falling, partial curve]"
same,Potency,[7],"inconclusive: 61.6 µM [cytotoxic, single point]"
same,Potency,[8],inconclusive: 54.9 µM [single point]
same,Potency,[9],active: 49 µM
same,Potency,[10],inconclusive: 54.9 µM [single point]
same,Potency,[11],active: 54.9 µM
same,"ratio activity, negative = inhibition",[12],inconclusive: 1.95%
same,Potency,[13],"inconclusive: 54.9 µM [inhibitor, single point]"
same,Potency,[14],active: 34.7 µM
same,Potency,[15],inconclusive: 61.6 µM
same,Potency,[16],inconclusive: 54.9 µM
same,Potency,[17],inactive
COC(=O)C1=C(C)NC(C)=C(C(=O)O[C@@H]2CCCN(Cc3ccccc3)C2)[C@@H]1c1cccc([N+](=O)[O-])c1,Potency,[1],inactive
same,Potency,[2],inconclusive: 29.8 µM
same,activation,[3],inconclusive: -12.9%
same,"ratio activity, negative = inhibition",[4],inconclusive: 6.39%
same,Potency,[6],"inconclusive: 16.8 µM [rising, partial curve, poor fit]"
same,Potency,[18],"inconclusive: 33.5 µM [cytotoxic, single point]"
same,Potency,[9],"inconclusive: 15 µM [cytotoxic, partial curve, poor fit]"
same,Potency,[10],"inconclusive: 26.6 µM [rising, partial curve, poor fit]"
same,Potency,[11],inactive
same,Potency,[13],inconclusive: 26.6 µM [partial curve]
same,Potency,[14],"inconclusive: 13.3 µM [cytotoxic, single point]"
same,activation,[15],inconclusive: 0.222%
